Results: PubChem BioAssay (Tox21)
The inconclusive results got no clear call from the source; some entries with a clear call stand among them for comparison. For some of these results: No potency is given beside an inconclusive call; the fits are too rough. Calls of active or inactive are those of the source. Unless noted, calls follow the shape of the dose curve; as a rule, active = well fitted curve in the direction sought with a large enough effect in the repeat runs; inconclusive = weak or mixed curves; inactive = no such curve, though single readings can be large; an effect the other way counts as inactive or inconclusive.

Tests used:
[1] = qHTS assay to identify small molecule antagonists of the estrogen related receptor (ERR) signaling pathway - cell viability counter screen (AID 1224818)
In short: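 Viability of ERR cells, CellTiter-Fluor fluorescence; 17.5 h compound exposure at 37 C, DMSO vehicle; 30 min reagent incubation at 37 C/5% CO2.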

[2] = tested on: estrogen-related receptor alpha (ERRalpha) with PGC-1alpha coactivator, human; test: qHTS assay to identify small molecule antagonists of the estrogen related receptor signaling pathway with the pleiotropic PPARgamma coactivator (PGC) (AID 1224821; calls by dose curve; also: nearly all actives have a fitted effect of over 50% in size)
In short: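 A PGC/ERR cell line supplied by NTP is seeded, allowed 6 h at 37 C, and treated with test compounds in DMSO for 18 h. Signal is then measured as luciferase luminescence using One-Glo.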

[3] = qHTS assay to identify small molecule antagonists of the estrogen related receptor signaling pathway with the pleiotropic PPARgamma coactivator (PGC) cell viability counter screen (AID 1224822)
In short: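 17.5 h compound treatment of PGC/ERR cells at 37 C; readout CellTiter-Fluor fluorescence; run alongside the PGC/ERR antagonist screen to flag cytotoxic compounds.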

[4] = qHTS assay for small molecule agonists of the p53 signaling pathway (AID 651631; calls by dose curve; also: nearly all actives have a fitted effect of over 15% in size); conditions: HCT-116 p53RE-bla reporter, beta-lactamase FRET ratio, 16 h; activation: at 73.3 µM (top of the series) unless noted
In short: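 HCT-116 cells carrying a beta-lactamase reporter under p53 response elements were dosed with compound for 16 h at 37 °C. LiveBLAzer B/G FRET substrate was then added for 2 h at room temperature, and fluorescence intensity was read to detect pathway agonism.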

[5] = qHTS assay for small molecule disruptors of the mitochondrial membrane potential (AID 720635); conditions: HepG2 mitochondrial membrane potential, Mito-MPS dye ratio; series mostly up to 83.2 µM
In short: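 Mitochondrial membrane potential tracked with Mito-MPS dye, red aggregates (ex 540/em 590 nm) against green monomers (ex 490/em 535 nm). Compound treatment 1 hr at 37C, dye 30 min in HepG2.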

[6] = molecular target: Glucocorticoid receptor (Homo sapiens) (UniProt P04150); test: qHTS assay to identify small molecule agonists of the glucocorticoid receptor (GR) signaling pathway (AID 720691; active = well fitted activation curve with a large enough effect in the signal ratio in the repeat runs, not every such curve was filed as active; inconclusive = weak or mixed curves, or effect the other way; inactive = no such curve, though single readings can be large or run the other way; the % refers to the signal ratio); conditions: GR-bla HeLa, beta-lactamase reporter ratio, 18 h; activation: at 62.4 µM (top of the series) unless noted
In short: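 Compounds in DMSO, alongside positive controls, were added to GR-bla HeLa reporter cells and incubated 18 h at 37 C; GRE-driven beta-lactamase was detected by fluorescence after 2 h with FRET substrate at room temperature.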

[7] = molecular target: Glucocorticoid receptor (Homo sapiens) (UniProt P04150); test: qHTS assay to identify small molecule antagonists of the glucocorticoid receptor (GR) signaling pathway (AID 720692; active = well fitted inhibition curve with a large enough effect in the signal ratio in the repeat runs, not every such curve was filed as active; inconclusive = weak or mixed curves, or effect the other way; inactive = no such curve, though single readings can be large or run the other way; the % refers to the signal ratio); conditions: GR-bla HeLa, beta-lactamase FRET ratio, dexamethasone-stimulated, 18 h; activity change, negative = inhibition: at 58.5 µM (top of the series) unless noted
In short: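 In a 1536-well cell format, compounds were added 4 h after seeding GR-bla HeLa cells, together with dexamethasone at 5 nM final; reporter activity was measured by FRET-substrate fluorescence following 18 h at 37 C.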

[8] = qHTS assay to identify small molecule antagonists of the androgen receptor (AR) signaling pathway - cell viability counter screen (AID 743033; also: nearly all actives have a fitted effect of over 45% in size); conditions: AR-bla HEK293 viability, CellTiter-Glo luminescence, 16 h; activity change, negative = cytotoxicity: at 58.5 µM (top of the series) unless noted
[9] = molecular target: Androgen receptor (Homo sapiens) (UniProt P10275); test: qHTS assay to identify small molecule antagonists of the androgen receptor (AR) signaling pathway (AID 743035; active = well fitted inhibition curve with a large enough effect in the signal ratio in the repeat runs, not every such curve was filed as active; inconclusive = weak or mixed curves, or effect the other way; inactive = no such curve, though single readings can be large or run the other way; the % refers to the signal ratio); conditions: HEK293 AR-UAS-bla, R1881-stimulated, beta-lactamase FRET, 16 h; activity change, negative = inhibition: at 58.5 µM (top of the series) unless noted
In short: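 Reporter HEK293 cells were exposed to compounds and R1881 overnight (16 h, 37C); beta-lactamase activity was then quantified by FRET fluorescence.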

[10] = molecular target: Androgen receptor (Homo sapiens) (UniProt P10275); test: qHTS assay to identify small molecule agonists of the androgen receptor (AR) signaling pathway (AID 743036; active = well fitted activation curve with a large enough effect in the signal ratio in the repeat runs, with a control signal flat, not every such curve was filed as active; inconclusive = weak or mixed curves, or effect the other way; inactive = no such curve, though single readings can be large or run the other way; the % refers to the signal ratio); conditions: HEK293 AR-UAS-bla GripTite, beta-lactamase FRET ratio, 16 h; activation: at 62.4 µM (top of the series) unless noted
In short: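 AR-UAS-bla HEK293 cells, plated 4 h before dosing, were treated with compound for 16 h at 37C. beta-Lactamase reporter read after 2 h with LiveBLAzer B/G FRET substrate at room temperature.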

[11] = qHTS assay to identify small molecule antagonists of the androgen receptor (AR) signaling pathway using the MDA cell line - cell viability counter screen (AID 743041; also: nearly all actives have a fitted effect of over 45% in size); conditions: MDA-kb2 viability, CellTiter-Fluor, 16 h, cells co-treated with R1881 androgen agonist; series mostly up to 70.3 µM
In short: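 Viability read by CellTiter-Fluor fluorescence in the same wells as the antagonist screen, added after 15.5 h of a 16 h, 37C exposure. Human breast carcinoma MDA-kb2 AR-luc cells, compounds co-dosed with agonist R1881.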

[12] = tested on: thyroid hormone receptor (rat, GH3 cells); test: qHTS assay to identify small molecule agonists of the thyroid receptor (TR) signaling pathway (AID 743066; calls by dose curve); conditions: GH3.TRE-Luc cells, TR agonist luciferase, 24 h; activation: at 83.9 µM (top of the series) unless noted
[13] = molecular target: Estrogen receptor (Homo sapiens) (UniProt P03372); test: qHTS assay to identify small molecule antagonists of the estrogen receptor alpha (ER-alpha) signaling pathway (AID 743069; active = well fitted curve in the direction sought with a large enough effect in the signal ratio in the repeat runs, not every such curve was filed as active; inconclusive = weak or mixed curves, or effect the other way; inactive = no such curve, though single readings can be large or run the other way; the % refers to the signal ratio); conditions: HEK293 ER-alpha-UAS-bla, beta-lactamase ratio, antagonist mode; series mostly up to 69.4 µM
In short: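 Antagonist mode: compounds in DMSO were co-added with 17beta-estradiol to ER-alpha-bla HEK293 cells (2% charcoal-stripped serum) and left 18 h at 37C. Reporter inhibition was measured as FRET fluorescence after 2 h LiveBLAzer substrate at room temperature.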

[14] = qHTS assay to identify small molecule antagonists of the estrogen receptor alpha (ER-alpha) signaling pathway - cell viability counter screen (AID 743074; calls by dose curve;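 also: HEK293 cells carrying ER-alpha-UAS-bla reporter stimulated with 17beta-estradiol; nearly all actives have a fitted effect of over 45% in size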)
[15] = molecular target: Estrogen receptor (Homo sapiens) (UniProt P03372); test: qHTS assay to identify small molecule agonists of the estrogen receptor alpha (ER-alpha) signaling pathway using the BG1 cell line (AID 743079); conditions: BG1Luc4E2 cells, ERE-luciferase agonist, 22 h; activation: at 70.3 µM (top of the series) unless noted; also: nearly all actives have a fitted effect of over 20% in size
[16] = qHTS assay to identify small molecule antagonists of the estrogen receptor alpha (ER-alpha) signaling pathway using the BG1 cell line (AID 743080; calls by dose curve;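 also: BG1 cells stimulated with 17beta-estradiol alongside compound; nearly all actives have a fitted effect of over 25% in size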); conditions: BG1Luc4E2 ERE-luciferase antagonist mode, luminescence; activity change, negative = inhibition: at 70.3 µM (top of the series) unless noted
In short: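 Readout is ONE-Glo luminescence, taken 30 min at room temperature after reagent addition, preceded by a CellTiter-Fluor viability read; BG1-Luc-4E2 cells had received compound and 17beta-estradiol for 21.5 h at 37 C.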

[17] = qHTS assay to identify small molecule antagonists of the estrogen receptor alpha (ER-alpha) signaling pathway using the BG1 cell line - cell viability counter screen (AID 743081); conditions: BG1Luc4E2 viability, CellTiter-Fluor, 22 h; activity change, negative = cytotoxicity: at 70.3 µM (top of the series) unless noted;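 also: compound given together with 17beta-estradiol as the ER stimulus; nearly all actives have a fitted effect of over 45% in size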
Aromatase (Homo sapiens) = Aromatase (Homo sapiens) (UniProt P11511); test: qHTS assay to identify aromatase inhibitors (AID 743083); also: nearly all actives have a fitted effect of over 55% in size
[18] = qHTS assay to identify aromatase inhibitors - cell viability counter screen (AID 743084); conditions: MCF-7 aro ERE viability, CellTiter-Fluor, 24 h; activity change, negative = cytotoxicity: at 70.3 µM (top of the series) unless noted;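 also: cells stimulated with testosterone during compound exposure; nearly all actives have a fitted effect of over 55% in size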
[19] = qHTS assay to identify small molecule that activate the aryl hydrocarbon receptor (AhR) signaling pathway - cell viability counter screen (AID 743086); also: nearly all actives have a fitted effect of over 45% in size
In short: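 Cytotoxicity counter screen: CellTiter-Fluor signal (30 min, 37 C) in 4000 HepG2 cells/well carrying the DRE-luciferase reporter, following 24 h compound exposure at 37 C.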

[20] = molecular target: Peroxisome proliferator-activated receptor gamma (Homo sapiens) (UniProt P37231); test: qHTS assay to identify small molecule agonists of the peroxisome proliferator-activated receptor gamma (PPARg) signaling pathway (AID 743094; active = well fitted activation curve with a large enough effect in the signal ratio in the repeat runs, not every such curve was filed as active; inconclusive = weak or mixed curves, or effect the other way; inactive = no such curve, though single readings can be large or run the other way; the % refers to the signal ratio); conditions: HEK293H PPARg-UAS-bla, beta-lactamase FRET ratio, 17 h; activation: at 57 µM (top of the series) unless noted
In short: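 Agonism was assessed in a beta-lactamase reporter system, HEK293H cells with a stably integrated UAS-bla construct under PPARg control; the 17 h treatment at 37C preceded a 1 h room-temperature FRET substrate read.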

[21] = qHTS assay to identify small molecule antagonists of the estrogen related receptor (ERR) signaling pathway (AID 1224819; also: nearly all actives have a fitted effect of over 50% in size)
In short: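 Seed ERR cells 2,000/well; rest 6 h at 37 C/5% CO2; pin compounds in DMSO; incubate 18 h at 37 C; add One-Glo; wait 30 min at room temperature; measure luminescence.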

[22] = qHTS assay to identify small molecule phospholipidosis (PLD) inducers (AID 1259344; active = well fitted curve in the direction sought with a large enough effect; inconclusive = small, poorly fitted or top-dose-only effect, or another doubt; inactive = no such curve, though single readings can be large; an effect the other way counts as inactive or inconclusive); conditions: HepG2 phospholipidosis, LipidTOX Red imaging, 24 h; series mostly up to 38.3 µM
In short: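 Phospholipid accumulation was scored by imaging: fixed, Hoechst-counterstained HepG2 cells stained with LipidTOX Red after 24 h compound exposure at 37 C. Read-outs were pit count and pit intensity per well or per cell, with amiodarone and DMSO controls.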
Potency is read from the fitted curve at half-maximal effect; tags tell the direction and shape of the fitted curve or compound fluorescence and quenching.

Sequence of UniProt P10275 (P10275 whole entry, looked up): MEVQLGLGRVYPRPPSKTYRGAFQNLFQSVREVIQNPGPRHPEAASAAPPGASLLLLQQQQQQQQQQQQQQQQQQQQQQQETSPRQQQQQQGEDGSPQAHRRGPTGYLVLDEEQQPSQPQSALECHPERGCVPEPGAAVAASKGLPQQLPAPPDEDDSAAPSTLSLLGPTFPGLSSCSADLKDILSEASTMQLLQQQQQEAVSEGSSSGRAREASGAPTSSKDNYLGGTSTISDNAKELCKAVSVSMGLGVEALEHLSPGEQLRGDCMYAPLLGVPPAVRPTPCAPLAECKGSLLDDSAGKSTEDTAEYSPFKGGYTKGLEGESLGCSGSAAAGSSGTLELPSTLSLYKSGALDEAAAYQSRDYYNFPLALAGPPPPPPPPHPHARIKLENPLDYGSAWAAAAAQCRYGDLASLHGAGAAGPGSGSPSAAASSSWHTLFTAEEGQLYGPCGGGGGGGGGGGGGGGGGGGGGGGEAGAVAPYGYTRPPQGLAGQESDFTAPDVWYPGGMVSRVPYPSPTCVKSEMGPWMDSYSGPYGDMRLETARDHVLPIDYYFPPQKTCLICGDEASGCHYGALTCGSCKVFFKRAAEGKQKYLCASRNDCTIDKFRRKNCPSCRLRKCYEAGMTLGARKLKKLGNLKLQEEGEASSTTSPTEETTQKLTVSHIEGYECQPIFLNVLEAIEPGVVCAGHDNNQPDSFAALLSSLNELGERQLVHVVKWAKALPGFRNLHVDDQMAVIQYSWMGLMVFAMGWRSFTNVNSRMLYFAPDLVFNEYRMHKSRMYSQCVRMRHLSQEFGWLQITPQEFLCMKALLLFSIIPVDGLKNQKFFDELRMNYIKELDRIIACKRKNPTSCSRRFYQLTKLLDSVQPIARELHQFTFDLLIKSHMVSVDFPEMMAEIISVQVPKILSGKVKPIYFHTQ
Sequence of UniProt P03372 (P03372 whole entry, looked up): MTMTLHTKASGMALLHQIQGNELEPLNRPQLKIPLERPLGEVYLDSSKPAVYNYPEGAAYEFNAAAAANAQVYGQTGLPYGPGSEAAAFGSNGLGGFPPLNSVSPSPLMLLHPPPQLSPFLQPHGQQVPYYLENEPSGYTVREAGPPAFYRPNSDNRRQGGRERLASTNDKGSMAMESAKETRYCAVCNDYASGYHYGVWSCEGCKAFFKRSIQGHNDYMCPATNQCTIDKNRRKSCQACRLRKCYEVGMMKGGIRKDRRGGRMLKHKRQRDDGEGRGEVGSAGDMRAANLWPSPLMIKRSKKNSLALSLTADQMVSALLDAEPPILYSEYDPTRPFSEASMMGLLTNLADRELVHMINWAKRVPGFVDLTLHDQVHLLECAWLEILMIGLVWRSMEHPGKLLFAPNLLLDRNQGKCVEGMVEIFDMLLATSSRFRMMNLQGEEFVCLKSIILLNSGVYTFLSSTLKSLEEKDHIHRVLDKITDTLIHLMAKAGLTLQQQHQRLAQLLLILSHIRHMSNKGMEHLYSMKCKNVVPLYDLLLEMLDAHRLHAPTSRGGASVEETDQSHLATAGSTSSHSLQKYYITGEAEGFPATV
Sequence of UniProt P04150 (P04150 whole entry, looked up): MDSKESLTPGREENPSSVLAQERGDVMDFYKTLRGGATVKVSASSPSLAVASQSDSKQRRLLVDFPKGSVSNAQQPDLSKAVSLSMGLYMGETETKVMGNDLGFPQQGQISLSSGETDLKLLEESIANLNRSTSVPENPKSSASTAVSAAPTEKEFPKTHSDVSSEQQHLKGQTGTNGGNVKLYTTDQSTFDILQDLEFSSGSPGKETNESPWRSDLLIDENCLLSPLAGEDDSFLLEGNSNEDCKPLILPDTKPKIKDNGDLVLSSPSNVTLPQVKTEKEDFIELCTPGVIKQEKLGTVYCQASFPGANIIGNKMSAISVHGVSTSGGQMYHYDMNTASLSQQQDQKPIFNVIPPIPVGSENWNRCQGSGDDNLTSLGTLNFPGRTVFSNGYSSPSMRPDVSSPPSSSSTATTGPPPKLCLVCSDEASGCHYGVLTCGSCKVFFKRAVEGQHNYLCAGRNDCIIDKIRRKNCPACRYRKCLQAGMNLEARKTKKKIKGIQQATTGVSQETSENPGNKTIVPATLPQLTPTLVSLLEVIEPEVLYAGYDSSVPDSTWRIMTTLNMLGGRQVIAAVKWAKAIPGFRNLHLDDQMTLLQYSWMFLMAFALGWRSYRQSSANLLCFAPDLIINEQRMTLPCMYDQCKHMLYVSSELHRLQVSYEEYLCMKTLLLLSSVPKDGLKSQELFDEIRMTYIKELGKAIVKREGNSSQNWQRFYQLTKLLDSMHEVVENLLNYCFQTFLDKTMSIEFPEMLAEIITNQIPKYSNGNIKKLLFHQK
Sequence of UniProt P11511 (P11511 whole entry, looked up): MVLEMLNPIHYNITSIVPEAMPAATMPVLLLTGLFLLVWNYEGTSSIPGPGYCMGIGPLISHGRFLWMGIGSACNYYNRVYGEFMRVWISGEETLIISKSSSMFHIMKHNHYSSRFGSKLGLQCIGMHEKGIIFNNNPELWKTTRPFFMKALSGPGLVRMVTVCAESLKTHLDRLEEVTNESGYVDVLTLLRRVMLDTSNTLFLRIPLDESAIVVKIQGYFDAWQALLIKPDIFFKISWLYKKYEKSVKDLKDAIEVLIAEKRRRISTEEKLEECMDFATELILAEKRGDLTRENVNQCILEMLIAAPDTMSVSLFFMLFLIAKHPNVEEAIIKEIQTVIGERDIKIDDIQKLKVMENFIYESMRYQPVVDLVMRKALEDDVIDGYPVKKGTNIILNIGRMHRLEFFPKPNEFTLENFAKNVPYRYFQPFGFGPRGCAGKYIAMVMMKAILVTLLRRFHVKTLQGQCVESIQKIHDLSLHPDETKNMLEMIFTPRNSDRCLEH
Sequence of UniProt P37231 (P37231 whole entry, looked up): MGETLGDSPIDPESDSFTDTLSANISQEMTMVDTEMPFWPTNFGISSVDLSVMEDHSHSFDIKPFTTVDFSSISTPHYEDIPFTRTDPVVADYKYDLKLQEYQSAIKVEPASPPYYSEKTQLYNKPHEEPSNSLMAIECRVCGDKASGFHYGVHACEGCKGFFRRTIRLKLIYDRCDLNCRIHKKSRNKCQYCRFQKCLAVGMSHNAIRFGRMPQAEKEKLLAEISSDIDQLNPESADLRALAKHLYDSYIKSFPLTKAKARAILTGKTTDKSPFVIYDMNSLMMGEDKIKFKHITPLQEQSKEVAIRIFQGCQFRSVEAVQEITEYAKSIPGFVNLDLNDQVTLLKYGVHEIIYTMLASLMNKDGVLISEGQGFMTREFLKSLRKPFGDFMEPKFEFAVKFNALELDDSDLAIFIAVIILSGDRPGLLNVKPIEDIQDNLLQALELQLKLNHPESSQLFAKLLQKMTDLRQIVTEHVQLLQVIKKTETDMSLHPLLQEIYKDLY

**Q.** For CC1(C)C(=O)N(CCN2CCC(C(=O)c3ccc(F)cc3)CC2)c2ccccc21, which Potency [1] is on record?
**A.** Its Potency is inconclusive [cytotoxic].

**Q.** And the Potency [2]?
**A.** The Potency was inconclusive [inhibitor].

**Q.** What about the Potency [3] of the same compound?
**A.** The Potency was inconclusive [cytotoxic, partial curve, poor fit].

**Q.** What does the source list for COc1cccc2c1[C@@H]1CN(CCCCn3c(=O)[nH]c4c(sc5ncc(-c6ccccc6)nc54)c3=O)C[C@@H]1CO2?
**A.** Potency [4]: inconclusive [cytotoxic, single point]; Potency [5]: active: 13.3 µM; Potency [6]: inconclusive [cytotoxic]; Potency [7]: inconclusive [activator, partial curve, poor fit]; Potency [8]: inconclusive [cytotoxic, single point]; Potency [9]: inconclusive; Potency [10]: inconclusive [fluorescent, partial curve, poor fit]; Potency [11]: inconclusive [cytotoxic]; Potency [12]: inconclusive [inhibitor, partial curve, poor fit]; Potency [13]: inconclusive [fluorescent, partial curve]; Potency [14]: inconclusive [cytotoxic, partial curve]; Potency [15]: inconclusive [inhibitor, partial curve]; Potency [16]: inconclusive [falling, partial curve]; Potency [17]: inconclusive [cytotoxic, full curve, poor fit]; Potency (Aromatase (Homo sapiens)): inconclusive [inhibitor, single point]; Potency [18]: active: 26.6 µM; Potency [19]: inconclusive; Potency [20]: inconclusive [inhibitor, full curve]; Potency [1]: inconclusive [cytotoxic]; Potency [21]: inconclusive [inhibitor, partial curve]; Potency [3]: inconclusive [cytotoxic]; Potency [22]: inconclusive [activator, partial curve, poor fit]
